{"source": "PubChem BioAssay AID1346428", "about": "(National Center for Advancing Translational Sciences (NCATS), 2018)", "note": "Several values for one entry are separate records, joined by “and”; a condition that tells them apart may be missing. Equal values may be shown once. The whole screen tested about 48,000 compounds, of which about 1,200 (2.5%) were called active. Not shown: some 2% with an inconclusive outcome.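 How the source made its calls: active means activation of at least 60% and not above a set upper limit (about 1 call in 100 departs from these limits); inconclusive means activation of 40% to 60%, or above that upper limit; inactive means activation under 40%.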 This is one part of the list.", "data": [{"biological_target": "Probable G-protein coupled receptor 32 (Homo sapiens) (UniProt O75388)", "sequence (O75388 whole entry, looked up)": "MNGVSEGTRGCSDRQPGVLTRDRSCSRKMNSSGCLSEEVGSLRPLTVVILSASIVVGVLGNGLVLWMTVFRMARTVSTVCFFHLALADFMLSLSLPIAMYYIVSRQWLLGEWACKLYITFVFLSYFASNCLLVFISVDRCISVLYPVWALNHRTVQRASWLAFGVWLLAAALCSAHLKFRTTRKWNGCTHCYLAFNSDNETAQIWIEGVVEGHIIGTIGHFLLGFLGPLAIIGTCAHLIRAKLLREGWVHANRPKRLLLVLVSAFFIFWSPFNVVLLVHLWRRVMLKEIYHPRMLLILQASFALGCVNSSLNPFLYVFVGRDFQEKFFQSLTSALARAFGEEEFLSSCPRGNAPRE", "experiment": "qHTS for Agonists of Human Resolvin D1 Receptor DRV1; further: 0% is about no effect", "details": "CHO-K1 GPR32 beta-arrestin PathHunter luminescence, 90 min; at 76.9 µM; active compounds read high; zero percent set by DMSO-only wells", "summary_of_the_method": "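Luminescent readout of beta-Gal complementation quantifies ligand-induced beta-arrestin association with GPR32 in CHO-K1 cells; 90 min compound incubation at 37 °C, detection 1 h at room temperature.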", "values": [{"smiles": "O=C1Nc2ccc(S(=O)(=O)Nc3ccccc3O)c3cccc1c23", "activation": "inactive: -19.8%"}, {"smiles": "Cn1c2ccccc2c2c(C(=O)N3CCN(c4ccc(F)cc4)CC3)cn(C3CCCCC3)c(=O)c21", "activation": "inactive: -27.2%"}, {"smiles": "COc1cc(Cl)c(C)cc1NC(=O)CSc1ncc(S(=O)(=O)c2ccc(C(C)(C)C)cc2)c(=O)[nH]1", "activation": "inactive: -10.1%"}, {"smiles": "CC(C)(Oc1ccc(C2CC2(Cl)Cl)cc1)C(=O)O", "note": "(stereo not drawn)", "activation": "inactive: 18.5% and inactive: -6.24%"}, {"smiles": "CC(C)CCN(Cc1ccco1)C(=O)c1cc2c(Cl)nc3ccccc3c2s1", "activation": "inactive: -12.4%"}, {"smiles": "Cc1ccc(S(=O)(=O)CC(=O)Nc2sc3c(c2C#N)CCCCC3)cc1", "activation": "inactive: 45.1%"}, {"smiles": "CCOc1ccc(C2Nc3ccccc3-c3nnc(SCc4ccccc4)nc3O2)cc1OC", "note": "(stereo not drawn)", "activation": "inactive: 8.57%"}, {"smiles": "COc1ccc(-c2noc(CSCC(=O)Nc3cccc(C(F)(F)F)c3)n2)cc1OC", "activation": "inactive: -13.9%"}, {"smiles": "CCCOc1ccc(-c2nn(-c3ccccc3)cc2C2NC(=O)NC(C)=C2C(=O)OC)cc1C", "note": "(stereo not drawn)", "activation": "inactive: -28.6%"}, {"smiles": "CCC(=O)N1CCc2cc(Br)cc(S(=O)(=O)CCC(=O)NCCc3ccc(Cl)cc3)c21", "activation": "inactive: -15.7%"}, {"smiles": "Cc1ccccc1CNC(=O)C1CCCN(S(=O)(=O)N(C)c2ccc(F)cc2)C1", "note": "(stereo not drawn)", "activation": "inactive: 1.2%"}, {"smiles": "CCOc1ccccc1NC(=O)Nc1nnc(N2CCCCCC2)s1", "activation": "inactive: -6.14%"}, {"smiles": "CCc1cccc(NC(=O)c2ccc(CN3C(=O)C(C)=C(c4ccc(OC)cc4)S3(=O)=O)cc2)c1", "activation": "inactive: -7.76%"}, {"smiles": "O=C(NCCc1csc(-c2cccc(F)c2)n1)c1cccs1", "activation": "inactive: 46.3%"}, {"smiles": "O=C(Cc1ccccc1)Nc1sc2c(c1C(=O)Nc1ccc(Cl)cc1)CCCC2", "activation": "inactive: -21.8%"}, {"smiles": "N#C/C(=C\\c1ccc(Cl)cc1)c1nc2ccccc2[nH]1", "activation": "inactive: 6.31%"}, {"smiles": "Cc1cccc(NC(=O)CSc2nc3c([nH]c4ccccc43)c(=O)n2C)c1C", "activation": "inactive: -11.8%"}, {"smiles": "CCOc1ccc(NC(=O)c2ccc(-c3nc(COc4ccccc4)c(C)o3)cc2)cc1", "activation": "inactive: -7.61%"}, {"smiles": "Brc1ccccc1-c1ccccc1", "activation": "inactive: 11.2%"}, {"smiles": "COc1ccccc1NC(=O)CSc1oc(-c2cccs2)nc1S(=O)(=O)c1ccc(Br)cc1", "activation": "inactive: -7.07%"}, {"smiles": "CCOC(=O)c1ccc(NS(=O)(=O)c2ccc(Br)s2)cc1", "activation": "active: 65.6%"}, {"smiles": "COc1ccc(NCc2cc3cc4c(cc3n(CC(=O)Nc3ccc(C)cc3)c2=O)OCO4)cc1", "activation": "inactive: -33.8%"}, {"smiles": "COc1ccccc1CNC(=O)Cn1ncc2c3ccccc3n(Cc3ccccc3C)c2c1=O", "activation": "inactive: -7.13%"}]}]}
